± gives the uncertainty stated by the source. A number of entries come with more than one value. They are shown here; other results are not. The source may hold further records. Values that stand side by side are repeats across runs, samples, wells, individuals or studies. What stands in brackets tells the records apart. Letters count within one entry.
ClC(Cl)(Cl)Cl
viscosity (298.15 K, 101 kPa): 0.8876 ± 0.023 mPa·s, 0.883 ± 0.023 mPa·s, 0.9019 ± 0.023 mPa·s, 0.893 ± 0.0089 mPa·s, 0.893 ± 0.0092 mPa·s, 0.9019 ± 0.0076 mPa·s, 0.948 ± 0.016 mPa·s, 0.9149 ± 0.024 mPa·s, 0.9275 ± 0.024 mPa·s, 0.908 ± 0.006 mPa·s, 0.905 ± 0.024 mPa·s, 0.9088 ± 0.01 mPa·s, 0.902 ± 0.068 mPa·s, 0.909 ± 0.009 mPa·s, 0.902 ± 0.024 mPa·s, 0.908 ± 0.024 mPa·s, 0.906 ± 0.014 mPa·s, 0.9397 ± 0.009 mPa·s, 0.883 ± 0.011 mPa·s, 0.883 ± 0.012 mPa·s, 0.8963 ± 0.024 mPa·s, 0.9077 ± 0.011 mPa·s, 0.9074 ± 0.011 mPa·s, 0.9058 ± 0.011 mPa·s, 0.9089 ± 0.011 mPa·s, 0.83 ± 0.018 mPa·s, 0.9 ± 0.009 mPa·s, 0.901 ± 0.008 mPa·s [several studies] | viscosity (298.15 K, 101.33 kPa): 0.887 ± 0.0062 mPa·s [study A] and 0.9019 ± 0.024 mPa·s [study B] and 0.821 ± 0.021 mPa·s [study C] and 0.905 ± 0.023 mPa·s [study D] | viscosity (303.15 K, 101 kPa): 0.796 ± 0.021 mPa·s, 0.842 ± 0.022 mPa·s, 0.906 ± 0.012 mPa·s, 0.8535 ± 0.023 mPa·s, 0.8702 ± 0.023 mPa·s, 0.83 ± 0.014 mPa·s, 0.849 ± 0.008 mPa·s, 0.881 ± 0.0087 mPa·s, 0.83 ± 0.006 mPa·s, 0.831 ± 0.0082 mPa·s [several studies] | viscosity (308.15 K, 101 kPa): 0.785 ± 0.008 mPa·s [study A] and 0.7817 ± 0.0079 mPa·s [study B] and 0.794 ± 0.008 mPa·s [study C] and 0.786 ± 0.021 mPa·s [study D] and 0.8162 ± 0.021 mPa·s [study E] and 0.8266 ± 0.0083 mPa·s [study F] | viscosity (313.15 K, 101 kPa): 0.796 ± 0.021 mPa·s [study A] and 0.745 ± 0.007 mPa·s [study B] and 0.7676 ± 0.02 mPa·s [study C] and 0.7754 ± 0.008 mPa·s [study D] and 0.7477 ± 0.02 mPa·s [study E] | viscosity (318.15 K, 101 kPa): 0.692 ± 0.007 mPa·s [study A] and 0.6866 ± 0.007 mPa·s [study B] and 0.699 ± 0.007 mPa·s [study C] and 0.691 ± 0.018 mPa·s [study D]

From the CheMixHub viscosity set
